Reference: PubChem BioAssay AID624296 (National Center for Advancing Translational Sciences (NCATS), 2012)
Among all 350,000 compounds or so, about 9,900 (2.8%) were called active. This list was built around the results that the source calls inconclusive (neither active nor inactive); the mix of calls is not that of the screen. The call rests on the fitted dose curve; in most records, active means well fitted activation curve with a large enough effect; inconclusive means small, poorly fitted or top-dose-only effect; inactive means no such curve, though single readings can be large or run the other way. No potency is given beside an inconclusive call; the fits are too rough.

Assay: A quantitative high throughput screen for small molecules that induce DNA re-replication in MCF 10a normal breast cells. Further: nearly all actives have a fitted effect of over 50% in size.
Conditions: MCF 10A DNA re-replication, Hoechst nuclear intensity, 48 h; series mostly up to 46.1 µM
Potency means the concentration at half of the fitted maximal effect; tags describe the fitted curve by direction and shape.

Compound	Potency
Cc1ccccc1NC(=O)C(=O)NCCc1ccccc1	inconclusive [activator, partial curve, poor fit]
NS(=O)(=O)c1cc(C(=O)OCC(=O)NNC(=O)c2ccccc2)ccc1Cl	inconclusive [activator, full curve, poor fit]
N#CC1=C(N)NC(SCc2ccc(Br)cc2)=C(C#N)C12CCCCC2	inconclusive [activator, single point]
Nc1nc(SCc2ccccc2Cl)c2ncn(C3OC(CO)C(O)C3O)c2n1 (stereo not drawn)	inactive
Cc1cccc(Cn2cc(/C=C/[N+](=O)[O-])c3ccccc32)c1	active: 20.6 µM
Cc1ccc(/C=N/N2C(=S)SC(C)(C)C2N(O)C(=O)Nc2ccc([N+](=O)[O-])cc2)cc1 (stereo not drawn)	inconclusive [activator, single point]
CCCC(=O)Nc1ccccc1NC(=O)c1ccc(OC)cc1	inactive
CC(=O)N1CCCc2cc(S(=O)(=O)CCC(=O)N3CCN(c4cccc(C)c4)C(C)C3)ccc21 (stereo not drawn)	inactive
NC(=O)C1CCCN1S(=O)(=O)c1ccc2ccccc2c1 (stereo not drawn)	inconclusive [activator, full curve, poor fit]
CC1(C)Cc2c(cnn2-c2ccc(F)cc2)C(NC(=O)CN2CCCCC2=O)C1 (stereo not drawn)	inactive
Cc1ccccc1S(=O)Cc1ccc(C(=O)NC2CCN(Cc3ccccc3)CC2)o1 (stereo not drawn)	inactive
O=C(NCc1ccccc1)C1CCN(c2nc(-c3ccccc3)nc3c2CCC3)CC1	inconclusive [activator, single point]
C/C(=N\OCc1ccc(C#N)cc1)c1ccccc1	inactive
COc1cc(/C=N\Nc2nc3ccccc3[nH]2)cc(OC)c1OC	inconclusive [activator, single point]
Cc1cccc(C(=O)Oc2ccccc2/C=N/NC(=O)c2ccc(NC(=O)C(C)(C)C)cc2)c1	inactive
CCn1cc(CN2CCCC(C(=O)Nc3cccc(-n4cccn4)c3)C2)c(C)n1 (stereo not drawn)	inactive
CC(C(=O)N1CCOCC1)N1C(=O)c2cccc3cccc(c23)C1=O (stereo not drawn)	inconclusive [activator, partial curve, poor fit]
CCOC(=O)c1sc2nc3c(SCCC#N)cc(C(=O)c4cc(F)ccc4O)cn3c(=O)c2c1C	inactive
O=C(COc1ccc(Cl)cc1)NCc1nnc2c3ccccc3c(-c3ccccc3)nn12	inconclusive [activator, single point]
CC(=NNc1ccc2ccccc2n1)c1ccccc1O	inconclusive [activator, single point]
CNc1nc(Cl)nc(Nc2ccccc2)n1	inconclusive [activator, single point]
CCN(CC1COc2ccccc2O1)C(=S)NCCCN(C)C (stereo not drawn)	inconclusive [activator, partial curve, poor fit]
CCCn1c(=O)c(C(=O)NCc2ccccc2)c(O)c2ccccc21	inconclusive [activator, partial curve]

Compound	Potency
Fc1ccc2[nH]c3c(NCc4ccccc4)ncnc3c2c1	inconclusive [activator, single point]
CCOC(=O)C1CCN(c2ncnc3c2oc2ccc(Br)cc23)CC1	active: 20.6 µM
O=C(NC(=S)Nc1ccc(N2CCCCC2)c(Cl)c1)c1cccs1	inconclusive [activator, partial curve, poor fit]
COCCCNC1=C(Cl)C(=O)c2ccccc2C1=O	inconclusive [activator, single point]
O=C1N/C(=N\c2ccccn2)SC1Cc1ccc(Cl)cc1 (stereo not drawn)	inconclusive [activator, single point]
CC(C)c1nnc(NC(=O)CCC(=O)NCC2CCCO2)s1 (stereo not drawn)	inactive
C[N+](C)(C)CCCCCCCCCC[N+](C)(C)C	inactive
CC(C)Sc1cc(N2CCOCC2)nc(-c2ccccc2)n1	inconclusive [activator, single point]
CC1CN(C(=O)c2cc(S(=O)(=O)N3CCN(c4ccccc4)CC3)ccc2Cl)CC(C)O1 (stereo not drawn)	inactive
Cc1ccc(NC(=O)Cn2c(O)c(N=NC(=O)c3cc4ccccc4cc3O)c3ccccc32)cc1	inconclusive [activator, full curve, poor fit]
Cc1cc(C)cc(N=Cc2ccc([N+](=O)[O-])s2)c1	active: 20.6 µM
O=C(/C=C\c1ccco1)c1ccc(NC(=O)c2ccco2)cc1	inconclusive [activator, partial curve, poor fit]
O=C(CSc1nc2ccccc2[nH]1)NC1CCS(=O)(=O)C1 (stereo not drawn)	inconclusive [activator, single point]
COc1ccc(OC)c(S(=O)(=O)N2CCCC(C(=O)N3CCCCCC3)C2)c1 (stereo not drawn)	inactive
Cc1cc2oc(=O)cc(CN3CCN(S(=O)(=O)c4cccs4)CC3)c2cc1C	inconclusive [activator, single point]
Cc1cc(=O)oc2cc(OCC(=O)Nc3ccc(N4CCC(C)CC4)cc3)ccc12	inconclusive [activator, partial curve, poor fit]
COc1ccc(CN2CC[C@H]3C=CCc4cccc(c43)C2)cc1	inconclusive [activator, partial curve, poor fit]
COc1ccc(Cl)cc1C(=O)N(Cc1nc(-c2cccc(C)c2)no1)C(C)C	inconclusive [activator, single point]
O=C(Cn1nnc2ccccc21)Nc1ccc(Cl)cn1	inconclusive [activator, single point]
O=S(=O)(/C=C/c1ccccc1)NC1CCCCCCC1	inconclusive [activator, single point]
CC1(C)Cc2c(ccc3ccccc23)/C(=C/C(=O)N2CCCCC2)N1	inconclusive [activator, partial curve, poor fit]
CCOC(=O)/C(=C\c1cn(C)c2ccccc12)[N+](=O)[O-]	inconclusive [activator, partial curve, poor fit]
CCOc1ccc(NS(=O)(=O)c2ccc3ncsc3c2)cc1	inconclusive [activator, single point]

Compound	Potency
O=C1C(=O)c2ccccc2C(O)=C1CCCCl	inconclusive [activator, single point]
CC(C)(C)C(=O)Nc1ccc(C(=O)CN2C(=O)NC3(CCOc4ccccc43)C2=O)cc1 (stereo not drawn)	inactive
COc1ccc(NC(=S)NNc2ccc(C(=O)O)cc2)cc1	inconclusive [activator, single point]
COc1cccc(Cn2cnc3c(NS(=O)(=O)c4ccc(Cl)cc4Cl)c(C)c(C)cc32)c1	inconclusive [activator, single point]
COc1ccccc1CNC(=O)c1ccc(S(=O)(=O)N2CCCC2)cc1	inactive
O=C(Nc1cccc(C(=O)NC2CC2)c1)c1ccc(Cl)c(S(=O)(=O)N2CCOCC2)c1	inactive
COCCn1c(-c2ccccc2)csc1=Nc1cccnc1	inconclusive [activator, single point]
Cc1c(CC(=O)NCCC(C)C)c(=O)oc2cc3c(cc12)CCC(C)(C)O3	inconclusive [activator, partial curve]
Cc1ccc(-c2cccc(C3CC=CC4C3C(=O)N(Cc3ccccc3)C4c3ccc(C(F)(F)F)cc3)c2)cc1 (stereo not drawn)	inconclusive [activator, full curve, poor fit]
O=C(NC(=S)Nc1ccc(S(=O)(=O)N2CCCC2)cc1)C1CC1	inconclusive [activator, partial curve, poor fit]
CN1/C(=C\C(=S)NC(=O)c2cccc(Br)c2)C(C)(C)c2ccccc21	inconclusive [activator, partial curve]
CC1(C)c2cc(O)ccc2OC1N1CCOCC1 (stereo not drawn)	inconclusive [activator, partial curve, poor fit]
O=C(Nc1ccc(Cl)cn1)Nc1ccccc1Cl	inconclusive [activator, partial curve, poor fit]
CC(C)NC(=O)c1ccc2c(c1)N(CC(=O)N1CCCC1)C(=O)C(C)(C)O2	inactive
O=C(Nc1ccccc1N1CCCCC1)c1ccc(-c2cccc(Cl)c2)o1	active: 16.4 µM
O=C(N/N=C/c1ccc[nH]1)c1ccc(COc2cccc3cccnc23)cc1	inconclusive [activator, partial curve, poor fit]
CC[C@]12c3[nH]c4cc(-c5ccco5)ccc4c3CCN1C(=O)[C@@H](CC(=O)NCCC1=CCCCC1)C[C@@H]2C(=O)N1CCN(C(=O)c2ccco2)CC1	inconclusive [activator, single point]
COc1nc(OC)nc(N2CCC(C(=O)NCc3ccco3)CC2)n1	inactive
CC(NC(=O)C(c1ccccc1)c1ccccc1)c1ccccc1 (stereo not drawn)	inactive
Cc1ccc(C(c2nnnn2Cc2ccccc2)N2CCN(Cc3ccccc3)CC2)cc1 (stereo not drawn)	active: 16.4 µM
COc1ccc(N=N/C(=C\O)C(=O)c2cccs2)cc1	inconclusive [activator, single point]
O=C(Nc1cccc(Cl)c1)N(Cc1nc2ccccc2c(=O)[nH]1)C1CCCC1	inconclusive [activator, single point]
